Assay results reported in PubChem BioAssay AID588342 (National Center for Advancing Translational Sciences (NCATS), 2011).
Hit rate of the full screen: of about 360,000 compounds, about 25,000 (6.9%) were called active. Inconclusive means that the source gave no clear call. Such entries were picked first, then a sample of the others. Calls follow the shape of the dose curve; as a rule, active = well fitted inhibition curve with a large enough effect; inconclusive = small, poorly fitted or top-dose-only effect; inactive = flat fitted curve, though single readings scatter. Potencies of inconclusive entries are doubtful fits and often do not repeat.

Each compound was assayed against Luciferin 4-monooxygenase (Photinus pyralis) (UniProt P08659) (assay: qHTS profiling assay for firefly luciferase inhibitor/activator using purifed enzyme and Km concentrations of substrates (counterscreen for miR-21 project)). Conditions: purified FLuc, luminescence inhibition; series mostly up to 57.5 µM.
Summary of the method: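 Purified P. pyralis luciferase (10nM final) with 10uM D-luciferin and 10uM ATP (Km levels) in 50mM Tris acetate pH 7.5, 10mM Mg acetate, 0.01% Tween-20, 0.05% BSA; qHTS 6-point titration, ~60 µM downward; luminescence read.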
Also: nearly all actives have a fitted effect of over 55% in size.
Potency is read from the fitted curve at half-maximal effect; tags tell the direction and shape of the fitted curve.

Sequence of UniProt P08659 (P08659 whole entry, looked up): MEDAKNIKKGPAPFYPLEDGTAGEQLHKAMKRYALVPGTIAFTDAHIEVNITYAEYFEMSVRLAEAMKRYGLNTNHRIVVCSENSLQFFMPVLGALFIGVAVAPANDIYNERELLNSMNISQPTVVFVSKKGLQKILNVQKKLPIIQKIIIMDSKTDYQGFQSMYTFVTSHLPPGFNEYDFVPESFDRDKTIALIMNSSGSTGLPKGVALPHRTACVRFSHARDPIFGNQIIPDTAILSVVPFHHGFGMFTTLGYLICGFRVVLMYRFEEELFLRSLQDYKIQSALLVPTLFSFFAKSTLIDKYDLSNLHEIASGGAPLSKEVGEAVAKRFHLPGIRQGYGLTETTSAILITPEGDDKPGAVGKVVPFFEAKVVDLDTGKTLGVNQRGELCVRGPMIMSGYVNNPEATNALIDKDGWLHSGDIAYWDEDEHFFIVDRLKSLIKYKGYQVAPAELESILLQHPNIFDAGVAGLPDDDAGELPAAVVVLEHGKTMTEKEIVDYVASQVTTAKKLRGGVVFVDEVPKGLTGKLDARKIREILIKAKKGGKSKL

SMILES	Potency
CCCCCn1c(-c2cccc(C)c2)nc2ccccc21	inconclusive: 37.9 µM [inhibitor, partial curve, poor fit]
Cc1ccccc1OCC(=O)N/N=C/c1ccc(N(C)C)cc1	inconclusive: 9.53 µM [inhibitor, partial curve, poor fit]
CC(C)(C)C(=O)N1CCN(c2ccc(Cl)cc2[N+](=O)[O-])CC1	inconclusive: 37.9 µM [inhibitor, partial curve, poor fit]
O=C(c1ccccc1)c1cc2ccccc2o1	active: 15.1 µM
CCOC(=O)c1c(C)[nH]c(C(=O)COC(=O)c2ccncc2)c1C	inconclusive: 12 µM [inhibitor, partial curve]
Cn1cc(SCC(=O)Nc2ccc3c(c2)OCO3)c2ccccc21	inconclusive: 30.1 µM [inhibitor, partial curve, poor fit]
COc1ccc2c(CC(=O)N3CCc4ccccc43)coc2c1	active: 3.38 µM
Cc1cc(C)cc(-n2ccnc(NCc3ccc(F)cc3)c2=O)c1	inactive
O=C1COc2cc(S(=O)(=O)CCC(=O)N3CCN(c4ccccc4)CC3)c(Cl)cc2N1	inactive
O=C(Cn1nnc2c(cnn2-c2ccccc2)c1=O)N1CCN(c2ccccc2F)CC1	inactive
CN(C(=O)Cn1ncc2c1-c1ccccc1OC2)c1ccc(Br)cc1	inactive
COc1ccc(NC(=O)CSc2nnc(-c3cc(C)[nH]n3)n2N)cc1OC	inconclusive: 26.9 µM [inhibitor, partial curve, poor fit]
N#C/C(=C\c1ccc(OCC(N)=O)cc1)c1ccccc1	active: 3.79 µM
CCN(c1ccccc1)S(=O)(=O)c1ccc(C(=O)N(CCCN(C)C)c2nc3c(C)cccc3s2)cc1	inactive
Cc1nn(CC(=O)N2CCN(c3cccc(Cl)c3)CC2)c(=O)c2c1sc1ccccc12	inactive
O=C(Nc1cccc(O)c1)c1ccc(NC(=O)c2cccs2)cc1	active: 15.1 µM
CCN(CC)Cc1c(O)ccc2c1O/C(=C\C=C\c1ccccc1)C2=O	active: 12 µM
O=C(N/N=C\c1ccccc1)c1sccc1-n1cccc1	inconclusive: 30.1 µM [inhibitor, partial curve, poor fit]
COc1ccc(CC(=O)Nc2ccc3nc(SC)sc3c2)cc1OC	inconclusive: 30.1 µM [inhibitor, partial curve, poor fit]
Cc1nc2ccc(NC(=O)CS(=O)(=O)c3ccccc3)cc2s1	active: 15.1 µM
O=C(C1CCN(S(=O)(=O)c2cccc3nsnc23)CC1)N1CC=C(c2ccccc2)CC1	inactive
O=C(N/N=C/c1c[nH]c2ccccc12)c1[nH]c2ccc(Br)cc2c1-c1ccccc1	inconclusive: 23.9 µM [inhibitor, partial curve, poor fit]
O=C(NCCCO)/C(=C\C=C\c1ccccc1)NC(=O)c1ccccc1Cl	inconclusive: 16.9 µM [inhibitor, partial curve]

SMILES	Potency
COc1cc(Br)ccc1C1C(C(=O)Nc2ccc(C)cc2C)=C(C)Nc2nnnn21 (stereo unspecified)	inactive
COc1ccc(CCNc2nc3ccccc3c3nc(-c4cccc(C)c4)nn23)cc1OC	inconclusive: 6.01 µM [inhibitor, partial curve]
Cc1ccc(C(=O)Nc2nc3c(s2)CCCC3)o1	active: 1.69 µM
COc1ccc(OCCOc2ccccc2[N+](=O)[O-])cc1	active: 16.9 µM
COc1cccc(CNc2ccc(N3CCC(C)CC3)cc2)c1OC	inconclusive: 23.9 µM [inhibitor, partial curve, poor fit]
O=S(=O)(Nc1ccc(-c2ccc(N3CCCC3)nn2)cc1)c1ccc(OC(F)(F)F)cc1	inconclusive: 10.7 µM [inhibitor, partial curve]
O=C(COC(=O)c1cccs1)Nc1ccccc1	inconclusive: 23.9 µM [inhibitor, partial curve]
CCN(CC(=O)Nc1ccc(NC(C)=O)cc1)C(=O)c1ccc2c(c1)OCCO2	inactive
CCn1c(C)nc2cc(-c3nc4n(n3)Cc3ccccc3-4)ccc21	active: 0.0239 µM
Cc1cc(=O)[nH]c(N/N=C/c2c(C)nn(-c3ccccc3)c2Cl)n1	inconclusive: 37.9 µM [inhibitor, single point]
COc1ccc(COc2cccnc2N)cc1	inconclusive: 23.9 µM [inhibitor, partial curve]
COc1ccc(-c2cn3c(n2)sc2cc(C(=O)Nc4ccc(F)cc4Cl)ccc23)cc1	active: 19 µM
COC(=O)c1c(-c2cccs2)csc1NC(=O)c1cc(OC)c(OC)c(OC)c1	inconclusive: 8.49 µM [inhibitor, partial curve, poor fit]
C/C(=N\Nc1ccc([N+](=O)[O-])cc1)c1ccc(O)cc1	inconclusive: 21.3 µM [inhibitor, single point]
COc1ccc(CNC(=O)Nc2ccccc2)cc1	active: 19 µM
CC1(C)Cc2c(sc(NC(=O)C(=O)N3CCCC3)c2C(N)=O)CO1	inactive
Cc1ccc2cc(CN(CCN(C)C)C(=S)Nc3ccccc3)c(=O)[nH]c2c1C	inactive
Cc1ccc(C)c(OCCn2nnc3ccccc32)c1	inconclusive: 23.9 µM [inhibitor, partial curve, poor fit]
Cc1ccc(NC(=O)C(=O)NCC(c2cccnc2)N2CCc3ccccc3C2)cc1 (stereo unspecified)	inconclusive: 4.78 µM [inhibitor, full curve]
O=C(CC(=O)Nc1ccccc1F)Nc1ccc2nc3n(c(=O)c2c1)CCCCC3	inconclusive: 16.9 µM [inhibitor, partial curve, poor fit]
COc1ccc(CC(=O)N/N=C/c2sccc2C)cc1	inconclusive: 21.3 µM [inhibitor, partial curve, poor fit]
Cc1nc(-c2ccccc2)sc1C(=O)Nc1ccccc1F	inconclusive: 37.9 µM [inhibitor, single point]
COc1cccc(N=Cc2nc(-c3ccccc3)oc2OC(C)=O)c1	inconclusive: 21.3 µM [inhibitor, partial curve, poor fit]
